Measurements taken from patent US20080008771A1, “Nitric Oxide Dioxygenase Inhibitors” (priority 2004, published 2008).
pKi: −log10 of the molar value.

Tests used:
Experiment in all cases: biochemical
[1] = molecular target: E. coli flavohemoglobin (NOD) (Escherichia coli, UniProt P24232)
[2] = molecular target: A. eutrophus flavohemoglobin (Cupriavidus necator, UniProt P39662); conditions: Apparent Ki
[3] = molecular target: S. cerevisiae flavohemoglobin (Saccharomyces cerevisiae, UniProt P39676)
S. cerevisiae flavohemoglobin, sequence (P39676 whole entry): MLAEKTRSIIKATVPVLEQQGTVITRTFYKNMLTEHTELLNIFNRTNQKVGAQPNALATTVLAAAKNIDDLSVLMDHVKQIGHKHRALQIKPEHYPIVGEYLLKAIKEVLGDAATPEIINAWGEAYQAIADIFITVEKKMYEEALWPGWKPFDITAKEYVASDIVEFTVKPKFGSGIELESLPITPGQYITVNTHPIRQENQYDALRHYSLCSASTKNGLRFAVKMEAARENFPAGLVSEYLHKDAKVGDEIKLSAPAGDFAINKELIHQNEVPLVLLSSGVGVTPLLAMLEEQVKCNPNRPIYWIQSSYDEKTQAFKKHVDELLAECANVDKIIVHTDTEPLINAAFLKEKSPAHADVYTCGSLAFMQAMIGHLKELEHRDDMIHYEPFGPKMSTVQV

A. eutrophus flavohemoglobin, sequence (P39662 whole entry): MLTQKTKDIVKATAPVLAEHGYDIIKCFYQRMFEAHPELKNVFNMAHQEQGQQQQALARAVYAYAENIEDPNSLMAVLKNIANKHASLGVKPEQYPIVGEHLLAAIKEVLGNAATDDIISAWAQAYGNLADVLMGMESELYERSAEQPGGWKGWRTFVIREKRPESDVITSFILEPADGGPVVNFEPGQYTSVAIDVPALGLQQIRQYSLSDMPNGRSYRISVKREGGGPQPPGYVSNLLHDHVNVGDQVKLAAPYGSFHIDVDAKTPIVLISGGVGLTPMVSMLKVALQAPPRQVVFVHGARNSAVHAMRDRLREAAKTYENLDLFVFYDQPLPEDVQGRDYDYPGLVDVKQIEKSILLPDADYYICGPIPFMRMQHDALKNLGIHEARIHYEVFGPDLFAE
E. coli flavohemoglobin (NOD), sequence (P24232 whole entry): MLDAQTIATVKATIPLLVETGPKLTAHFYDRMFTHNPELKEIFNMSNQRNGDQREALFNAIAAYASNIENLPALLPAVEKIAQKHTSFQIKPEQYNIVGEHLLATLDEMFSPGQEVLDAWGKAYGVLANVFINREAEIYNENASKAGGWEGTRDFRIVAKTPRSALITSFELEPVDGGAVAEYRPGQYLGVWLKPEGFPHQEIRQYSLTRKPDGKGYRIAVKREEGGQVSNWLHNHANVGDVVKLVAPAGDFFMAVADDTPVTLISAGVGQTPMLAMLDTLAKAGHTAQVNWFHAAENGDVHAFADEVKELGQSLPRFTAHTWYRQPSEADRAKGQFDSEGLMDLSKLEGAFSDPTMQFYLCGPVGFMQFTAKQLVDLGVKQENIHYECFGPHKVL

| Compound | pKi [1] | pKi ([2]; first (major) phase) | pKi ([2]; second (minor) phase) | pKi [3] |
| --- | --- | --- | --- | --- |
| Clc1ccccc1C(c1ccccc1)(c1ccccc1)n1ccnc1 [clotrimazole] | 5.89 | 6.70 | 5.30 | 4.30 |
| Clc1ccc(COC(Cn2ccnc2)c2ccc(Cl)cc2Cl)cc1 (stereo not drawn) [econazole] | 6.26 | 7.00 | 5.70 | 4.52 |
| Clc1ccc(COC(Cn2ccnc2)c2ccc(Cl)cc2Cl)c(Cl)c1 (stereo not drawn) [miconazole] | 7.10 | 8.30 | 6.19 | 4.92 |
